Experimental data taken from the RNAGym collection of RNA variant scans (doi:10.1093/nar/gkz1192).
Read counts are not given, so values of variants with three or more changes are uncertain.

B1: CPEB3 Ribozyme (parent)
chain: UAACAGGGGGCCACAGCAGAAGCGUUCACGUCGCAGCCCCUGUCAGAUUCUGGUGAAUCUGCGAAUUCUGCUGUAUAUCUC

Variants of: B1
Assay: self-cleavage, relative activity (ratio to wild type); higher = more cleavage; in vitro, sequencing
In short: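 CPEB3 self-cleaving ribozyme mutant libraries were made by rounds of error-prone PCR, barcoded, and transcribed in vitro with T7 RNA polymerase for 5 hours at 37°C. Cleavage occurred during transcription and a 15 min DNase I step before EDTA stop. RNAs were reverse transcribed with template switching and Illumina-sequenced, with DNA sequencing mapping barcodes to variants. Relative activity is the variant's cleaved/total read fraction divided by wild type's (minimum 5 reads), averaged across three batches.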

| Variant | self-cleavage |
| --- | --- |
| UAGCAGGGGGCCACAGCAGAAGCGUUCACGUCGCAGCCCCUGUCAGAUUCUGGUGAGUCUGCGGGUUCUGCUGUAUAUCUC [A3G A57G A64G A65G] | 0.27 |
| UAGUAGGAGGCCUCAGCAGAAGCGUUCCCGUCGCAGCCCCUGUCAGAUUCUGGUGAGUCUGCGAAUUCUGCUGUAUAUCUC [A3G C4U G8A A13U A28C A57G] | 0.18 |
| UAGCAGGGGGGCACAGCAGAGGCGUUCACGUCGCAGCCCCUGUCAGAUUCUGGUGAAUCUGCGAGUUCUGCUGUAUAUCUC [A3G C11G A21G A65G] | 0.09 |
| UAGCAGGGGGCCACAGCAGAAGCGUUCACGUCGCAGCCCCUGUCAGAUUCUGGUGAAUCUGCGGAUACUGCUGUAUAUAUC [A3G A64G U67A C79A] | 0.3 |
| UAGUAGGGGACCACAGCAGAAGCGUUCACGUCGCAGCCCCUGUCAGAUUCUGGUGAAUCUGCGAAUUCUGCUGUAUAACUC [A3G C4U G10A U78A] | 0.47 |
| UAGCAGGGGGGCACACCAGGAGCGUUCACGUCGCAGCCCCUGACAGAUCCUGGUGAAUCUGCGAAUUCUGCUGUAUAUCUC [A3G C11G G16C A20G U43A U49C] | 0.06 |
| UAGCAGGGGGCCACAGCAGAAGCGUUCACGUCGCAGCCCCUGUCAGAUUCUGGUGCAUCUGCGAAUUCUGCUAUGUAUCCC [A3G A56C G73A A75G U80C] | 1.27 |
| UAGCAGGGGGCCACAGCAGAAGCGUUCACGUCGCAGCCCCUGUCAGAUUCUGGUGAGUCCGCGUAUUCUGCCGUAUACCAC [A3G A57G U60C A64U U72C U78C U80A] | 0.39 |
| UAGCAGGGGGGCACAGCUGAAGCGUUCACGUCGCAGCCCCUGUCAGAUUCCGGUGAAUCUGCGGAUUCUGCUGUAUAUCUC [A3G C11G A18U U51C A64G] | 0.11 |
| UAGCAGGGGGCCACAGCAGAAGCGUUCACGUCGCAGCCCCUGUCAGAUUCUGGUGAAUCUGCGUAUUCUGCGGUAUAUCUC [A3G A64U U72G] | 0.73 |
| UAGUAGGGGGCCACAGCAGAAGCGUUCAUGUCGCAGCCCCUGUCAGAUUCUGGUGAAUCUGCGAAUUCUGCUGUAUAUCUC [A3G C4U C29U] | 0.41 |
| UAGCAGGGGGCCACAGCAGAAGCGUUCACGUCGCAGCCCCUGUCAGAUUCUGGUGAAUCUGCGGAUACUGCUGUAUAUCAC [A3G A64G U67A U80A] | 0.46 |
| UAGUAGGGGGCCACAGCAGAAGCGUUCACGUCGCAGCCCCAGUCAGAUUCUGGUGAAUCUGCGAAUUCUGUUGUAUAUCUC [A3G C4U U41A C71U] | 0.12 |
| UAGCAGGGGGGCACAGCAGAAGCGUUCACGUCGCAGCCCCUGUCAGAUUCUGGUGAAUCUGUGAAUUCCGCUGUAUAUAUC [A3G C11G C62U U69C C79A] | 0.08 |
| UAGAAGGGGGCCACAGCAGAAGCGUUCACGUCGCAGCCCCUGUAAGAUUCUGGUGAAUCUGCGAAUUCUGCUGUAUAUCUC [A3G C4A C44A] | 0.64 |
| UAGUAGGAGGCCACAGCAGAAGCGUUCACGUCGCUGCCCCUGUCAGAUUCCGGUGAAUCUGCGAAUUCUGCUGUAUAUCUC [A3G C4U G8A A35U U51C] | 0.11 |
| UAGCAGGGGGCCACAGCAGAAGCGUUCACGUCGCAGCCCCUGUCAGUCUCUGGUGAAUCUGCGAAUUCUGCUGUAUAUCUC [A3G A47U U48C] | 0.5 |

| Variant | self-cleavage |
| --- | --- |
| UAGCAGGGGGCCACAGCAGAAGCGUUCACGUCGCAGCCCCUGUCAGAUUCUGGUGUGUCUGCGAAUUCUGCUGUAUAUCUC [A3G A56U A57G] | 0.33 |
| UAGGAGGGUGCCACAGCAGAAGCGUUCACGUCGCAGCCCCUGUCAGAUUCUGGUGAAUCUGCGAAUUCUGCUGUAUAUCUC [A3G C4G G9U] | 0.13 |
| UAGCAGGGGGCCACAGCAGAAGCGUUCACGUCGCAGCCCCUGUCAGUUUCUGGUGAAUCUGCGAAUUCUGCUGUAUAUCCC [A3G A47U U80C] | 0.58 |
| UAGUAGGGGGCCGCAGCAGAAGCGUUCACGUCGCAGCCCCUGUCAGAUUCUGGUGAAUCUGCGAAUUCAGCUGUGUAUCUC [A3G C4U A13G U69A A75G] | 0.41 |
| UAGCAGGGGGCCACAGCAGAAGCGUUCACGUCGCAGCCCCUGUCAGAUUCUGGUGAGUCUGCGAAUUCAGCUGUAUAUUUC [A3G A57G U69A C79U] | 0.93 |
| UAGCAGGGGGCCACAGCAGAAGCGUUCACGUCGCAGCCCCUGUCAGAUUCUGGUGACUCUGCGAAUUCUGCUGUAUAUCCC [A3G A57C U80C] | 0.52 |
| UAGCAGGGGGCCACAGCAGAAGCGUUCACGUCGCAGCCCCUGUCAGAUUCUGGUGAAUCUGCGGAUUAUGCUGUAUAUCUC [A3G A64G C68A] | 0.27 |
| UAGCAGGGGGCCACAGCAGAAGCGUUCACGUCGCAGCCCCUGUCAGAUUCUGGUGAUUCUGCGAAAUCUGCUGUAUAUCUC [A3G A57U U66A] | 0.33 |
| UAGCAGGGGGCCACAGCAGAAGCGUUCACGUCGCAGCCCCUGUCAGAUUCUGGUGAAUCUGCGAGUUCUGCUGUAUAUCCC [A3G A65G U80C] | 0.64 |
| UAGUAGGGGGCCACAGCAGAAGCGUUCACGUCGCAGCCCCCGUCAGACUCUGGUGAAUCUGCGAAAUCUGCUGUAUAUCCC [A3G C4U U41C U48C U66A U80C] | 0.23 |
| UAGCAGGGGGCCACAGCAGAAGCGUUCACGUCGCAGCCCCUGUCAGAUUCUGGUGACUCUGCGAAUUCAGCUGUAUAUCUC [A3G A57C U69A] | 0.23 |
| UAGCAGGGGGCCACAGCAGAAGCGUUCACGUCGCAGCCCCUGUCAGAUUCUGGUGACUCUGCGAACUCUGCUGUAUAUCUC [A3G A57C U66C] | 0.72 |
| UAGCAGGGGGCCACAGCAGAAGCGUUCACGUCGCAGCCCCUGUCAGUUUCUGGUGAAUCUGCGAAUUCUGCUGUAUACCUC [A3G A47U U78C] | 0.48 |
| UAGUAGGGGGCCACAGCAGAUGCGUUCACGUCGCAGCCCCUGUCAGAUUCUGGUGAAUCUGCGAAAUCUGCUGUAUAUCUC [A3G C4U A21U U66A] | 1.06 |
| UAGCAGGGGGGCGCAGCAGAAGCGCUCACGUCGCAGCCCCUGUCAGAUUCUGGUGAAUCCGCGAAUUCUGCUGAAUAUCUC [A3G C11G A13G U25C U60C U74A] | 0.03 |
| UAGUAGGGGGCCACGGCAGAAGCGUUCACGUCGCAGCCCCCGUCAGAUUCUGGUUAAUCUGCGAAUUCUGCUGUAUGUCUC [A3G C4U A15G U41C G55U A77G] | 0.62 |
| UAGCAGGGGGGCACAGCAGAUGCGUUCACGUCGCAACCCCUGUCAGAUCCUGGUGAAUCUGCGAAUUCUGCUGUAUAUCUC [A3G C11G A21U G36A U49C] | 0.04 |
